Consider eleven molecules from patent publication US20260217856A1 (MIE UNIVERSITY, published 2026).

One test concerns the target T1, CD19 (human, UniProt P15391 20-556).
T1 sequence (looked up): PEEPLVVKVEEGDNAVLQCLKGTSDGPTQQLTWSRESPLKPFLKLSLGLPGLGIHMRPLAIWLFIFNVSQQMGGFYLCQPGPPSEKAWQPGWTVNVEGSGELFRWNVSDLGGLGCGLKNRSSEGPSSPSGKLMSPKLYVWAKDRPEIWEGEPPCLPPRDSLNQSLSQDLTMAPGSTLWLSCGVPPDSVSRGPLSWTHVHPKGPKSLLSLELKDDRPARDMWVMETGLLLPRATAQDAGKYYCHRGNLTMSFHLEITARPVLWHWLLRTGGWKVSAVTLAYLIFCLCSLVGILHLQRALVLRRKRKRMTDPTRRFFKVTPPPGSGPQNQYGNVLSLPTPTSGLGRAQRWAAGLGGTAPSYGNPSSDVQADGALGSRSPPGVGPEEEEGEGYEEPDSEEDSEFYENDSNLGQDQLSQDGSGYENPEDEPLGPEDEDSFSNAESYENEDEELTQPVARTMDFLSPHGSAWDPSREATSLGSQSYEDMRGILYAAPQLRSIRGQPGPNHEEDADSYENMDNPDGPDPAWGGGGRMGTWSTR
Nature of the test: cell-based or functional assay.

Test [1] concerns the target complex of a MAGE-A4 derived peptide and HLA-A2 (human). Nature of the test: cell-based or functional assay.

B1: CD19-28z-m7 (other)
chain: DIQMTQTTSSLSASLGDRVTISCRASQDISKYLNWYQQKPDGTVKLLIYHTSRLHSGVPSRFRGRGSGTDYRLTISNLEQEDIATYFCQQGNTLPYTFGGGTKLEITGGGGSGGGGSGGGGSEVKLQESGPGLVAPSQSLSVTCTVSGVSLPDYGVSWIRQPPRKGLEWLGVIWGSETTYYNSALKSRLTIIKDNSKSQVFLKMNSLQTDDTAIYYCAKHYYYGGSYAMDYWGQGTSVTVSSIEVMYPPPYLDNEKSNGTIIHVKGKHLCPSPLFPGPSKPFWVLVVVGGVLACYSLLVTVAFIIFWVRSKRSRLLHSDYMNMTPRRPGPTRKHYQPYAPPRDFAAYRSL[about 120 residues left out here]
With B1, in the test with CD19, the “IFNγ production, co-culture with Nalm-6” value is 0.13 ratio to WT CAR-T (1.00) and the “cytotoxic activity, effector:target 1:1, Nalm-6 target cells” value was 1.11 ratio to WT CAR-T (1.00).

B2: CD19-28z-m16 (other)
chain: DIQMTQTTSSLSASLGDRVTISCRASQDISKYLNWYQQKPDGTVKLLIYHTSRLHSGVPSRFRGRGRGTRYRLTISNLEQEDIATYFCQQGNTLPYTFGGGTKLEITGGGGSGGGGSGGGGSEVKLQESGPGLVAPSQSLSVTCTVSGVSLPDYGVSWIRQPPRKGLEWLGVIWGSETTYYNSALKSRLTIIKDNSKSQVFLKMNSLQTDDTAIYYCAKHYYYGGSYAMDYWGQGTSVTVSSIEVMYPPPYLDNEKSNGTIIHVKGKHLCPSPLFPGPSKPFWVLVVVGGVLACYSLLVTVAFIIFWVRSKRSRLLHSDYMNMTPRRPGPTRKHYQPYAPPRDFAAYRSL[about 120 residues left out here]
B2: in the test with CD19, the “IFNγ production, co-culture with Nalm-6” value is 0.15 ratio to WT CAR-T (1.00); the “cytotoxic activity, effector:target 1:1, Nalm-6 target cells” value is 1.32 ratio to WT CAR-T (1.00); the “cytotoxic activity, effector:target 2:1, Nalm-6 target cells” value was 1.93 ratio to WT CAR-T (1.00).

B3: CD19-28z-Km15 (other)
chain: DIQMTQTTSSLSASLGDRVTISCRASQDISKYLNWYQQKPDGTVKLLIYHTSRLHSGVPSRFKGKGKGTKYKLTISNLEQEDIATYFCQQGNTLPYTFGGGTKLEITGGGGSGGGGSGGGGSEVKLQESGPGLVAPSQSLSVTCTVSGVSLPDYGVSWIRQPPRKGLEWLGVIWGSETTYYNSALKSRLTIIKDNSKSQVFLKMNSLQTDDTAIYYCAKHYYYGGSYAMDYWGQGTSVTVSSIEVMYPPPYLDNEKSNGTIIHVKGKHLCPSPLFPGPSKPFWVLVVVGGVLACYSLLVTVAFIIFWVRSKRSRLLHSDYMNMTPRRPGPTRKHYQPYAPPRDFAAYRSL[about 120 residues left out here]
With B3, in the test with CD19, the “IFNγ production, co-culture with Nalm-6” value was 0.14 ratio to WT CAR-T (1.00); the “cytotoxic activity, effector:target 1:1, Nalm-6 target cells” value is 1.23 ratio to WT CAR-T (1.00); the “cytotoxic activity, effector:target 2:1, Nalm-6 target cells” value was 1.29 ratio to WT CAR-T (1.00).

B4: CD19-28z-m10 (other)
chain: DIQMTQTTSSLSASLGDRVTISCRASQDISKYLNWYQQKPDGTVKLLIYHTSRLHSGVPSRFRGSGSGTRYRLTISNLEQEDIATYFCQQGNTLPYTFGGGTKLEITGGGGSGGGGSGGGGSEVKLQESGPGLVAPSQSLSVTCTVSGVSLPDYGVSWIRQPPRKGLEWLGVIWGSETTYYNSALKSRLTIIKDNSKSQVFLKMNSLQTDDTAIYYCAKHYYYGGSYAMDYWGQGTSVTVSSIEVMYPPPYLDNEKSNGTIIHVKGKHLCPSPLFPGPSKPFWVLVVVGGVLACYSLLVTVAFIIFWVRSKRSRLLHSDYMNMTPRRPGPTRKHYQPYAPPRDFAAYRSL[about 120 residues left out here]
For B4, in the test with CD19, the “IFNγ production, co-culture with Nalm-6” value is 0.21 ratio to WT CAR-T (1.00); the “cytotoxic activity, effector:target 1:1, Nalm-6 target cells” value is 0.98 ratio to WT CAR-T (1.00); the “cytotoxic activity, effector:target 2:1, Nalm-6 target cells” value was 1.59 ratio to WT CAR-T (1.00).

B5: CD19-28z-Km6 (other)
chain: DIQMTQTTSSLSASLGDRVTISCRASQDISKYLNWYQQKPDGTVKLLIYHTSRLHSGVPSRFKGKGSGTKYSLTISNLEQEDIATYFCQQGNTLPYTFGGGTKLEITGGGGSGGGGSGGGGSEVKLQESGPGLVAPSQSLSVTCTVSGVSLPDYGVSWIRQPPRKGLEWLGVIWGSETTYYNSALKSRLTIIKDNSKSQVFLKMNSLQTDDTAIYYCAKHYYYGGSYAMDYWGQGTSVTVSSIEVMYPPPYLDNEKSNGTIIHVKGKHLCPSPLFPGPSKPFWVLVVVGGVLACYSLLVTVAFIIFWVRSKRSRLLHSDYMNMTPRRPGPTRKHYQPYAPPRDFAAYRSL[about 120 residues left out here]
For B5, in the test with CD19, the “IFNγ production, co-culture with Nalm-6” value is 0.2 ratio to WT CAR-T (1.00); the “cytotoxic activity, effector:target 1:1, Nalm-6 target cells” value is 1.13 ratio to WT CAR-T (1.00); the “cytotoxic activity, effector:target 2:1, Nalm-6 target cells” value was 1.5 ratio to WT CAR-T (1.00).

B6: CD19-28z-Km14 (other)
chain: DIQMTQTTSSLSASLGDRVTISCRASQDISKYLNWYQQKPDGTVKLLIYHTSRLHSGVPSRFSGKGKGTKYKLTISNLEQEDIATYFCQQGNTLPYTFGGGTKLEITGGGGSGGGGSGGGGSEVKLQESGPGLVAPSQSLSVTCTVSGVSLPDYGVSWIRQPPRKGLEWLGVIWGSETTYYNSALKSRLTIIKDNSKSQVFLKMNSLQTDDTAIYYCAKHYYYGGSYAMDYWGQGTSVTVSSIEVMYPPPYLDNEKSNGTIIHVKGKHLCPSPLFPGPSKPFWVLVVVGGVLACYSLLVTVAFIIFWVRSKRSRLLHSDYMNMTPRRPGPTRKHYQPYAPPRDFAAYRSL[about 120 residues left out here]
Turning to B6, in the test with CD19, the “IFNγ production, co-culture with Nalm-6” value is 0.13 ratio to WT CAR-T (1.00); the “cytotoxic activity, effector:target 1:1, Nalm-6 target cells” value was 1.34 ratio to WT CAR-T (1.00); the “cytotoxic activity, effector:target 2:1, Nalm-6 target cells” value is 1.72 ratio to WT CAR-T (1.00).

B7: CD19-28z-Km13 (other)
chain: DIQMTQTTSSLSASLGDRVTISCRASQDISKYLNWYQQKPDGTVKLLIYHTSRLHSGVPSRFKGKGSGTKYKLTISNLEQEDIATYFCQQGNTLPYTFGGGTKLEITGGGGSGGGGSGGGGSEVKLQESGPGLVAPSQSLSVTCTVSGVSLPDYGVSWIRQPPRKGLEWLGVIWGSETTYYNSALKSRLTIIKDNSKSQVFLKMNSLQTDDTAIYYCAKHYYYGGSYAMDYWGQGTSVTVSSIEVMYPPPYLDNEKSNGTIIHVKGKHLCPSPLFPGPSKPFWVLVVVGGVLACYSLLVTVAFIIFWVRSKRSRLLHSDYMNMTPRRPGPTRKHYQPYAPPRDFAAYRSL[about 120 residues left out here]
Take B7: in the test with CD19, the “IFNγ production, co-culture with Nalm-6” value was 0.13 ratio to WT CAR-T (1.00); the “cytotoxic activity, effector:target 1:1, Nalm-6 target cells” value was 1.37 ratio to WT CAR-T (1.00); the “cytotoxic activity, effector:target 2:1, Nalm-6 target cells” value is 1.68 ratio to WT CAR-T (1.00).

B8: CD19-28z-m5 (other)
chain: DIQMTQTTSSLSASLGDRVTISCRASQDISKYLNWYQQKPDGTVKLLIYHTSRLHSGVPRRFRGRGSGTDYSLTISNLEQEDIATYFCQQGNTLPYTFGGGTKLEITGGGGSGGGGSGGGGSEVKLQESGPGLVAPSQSLSVTCTVSGVSLPDYGVSWIRQPPRKGLEWLGVIWGSETTYYNSALKSRLTIIKDNSKSQVFLKMNSLQTDDTAIYYCAKHYYYGGSYAMDYWGQGTSVTVSSIEVMYPPPYLDNEKSNGTIIHVKGKHLCPSPLFPGPSKPFWVLVVVGGVLACYSLLVTVAFIIFWVRSKRSRLLHSDYMNMTPRRPGPTRKHYQPYAPPRDFAAYRSL[about 120 residues left out here]
Turning to B8, in the test with CD19, the “IFNγ production, co-culture with Nalm-6” value was 0.34 ratio to WT CAR-T (1.00); the “cytotoxic activity, effector:target 1:1, Nalm-6 target cells” value is 0.95 ratio to WT CAR-T (1.00); the “cytotoxic activity, effector:target 2:1, Nalm-6 target cells” value is 1.09 ratio to WT CAR-T (1.00).

B9: CD19-28z-m11 (other)
chain: DIQMTQTTSSLSASLGDRVTISCRASQDISKYLNWYQQKPDGTVKLLIYHTSRLHSGVPSRFSGRGRGTRYSLTISNLEQEDIATYFCQQGNTLPYTFGGGTKLEITGGGGSGGGGSGGGGSEVKLQESGPGLVAPSQSLSVTCTVSGVSLPDYGVSWIRQPPRKGLEWLGVIWGSETTYYNSALKSRLTIIKDNSKSQVFLKMNSLQTDDTAIYYCAKHYYYGGSYAMDYWGQGTSVTVSSIEVMYPPPYLDNEKSNGTIIHVKGKHLCPSPLFPGPSKPFWVLVVVGGVLACYSLLVTVAFIIFWVRSKRSRLLHSDYMNMTPRRPGPTRKHYQPYAPPRDFAAYRSL[about 120 residues left out here]
For B9, in the test with CD19, the “IFNγ production, co-culture with Nalm-6” value was 0.17 ratio to WT CAR-T (1.00); the “cytotoxic activity, effector:target 1:1, Nalm-6 target cells” value is 1.06 ratio to WT CAR-T (1.00); the “cytotoxic activity, effector:target 2:1, Nalm-6 target cells” value was 1.4 ratio to WT CAR-T (1.00).

B10: CD19-28z-m12 (other)
chain: DIQMTQTTSSLSASLGDRVTISCRASQDISKYLNWYQQKPDGTVKLLIYHTSRLHSGVPSRFSGRGRGTDYRLTISNLEQEDIATYFCQQGNTLPYTFGGGTKLEITGGGGSGGGGSGGGGSEVKLQESGPGLVAPSQSLSVTCTVSGVSLPDYGVSWIRQPPRKGLEWLGVIWGSETTYYNSALKSRLTIIKDNSKSQVFLKMNSLQTDDTAIYYCAKHYYYGGSYAMDYWGQGTSVTVSSIEVMYPPPYLDNEKSNGTIIHVKGKHLCPSPLFPGPSKPFWVLVVVGGVLACYSLLVTVAFIIFWVRSKRSRLLHSDYMNMTPRRPGPTRKHYQPYAPPRDFAAYRSL[about 120 residues left out here]
Consider B10, for which, in the test with CD19, the “IFNγ production, co-culture with Nalm-6” value was 0.16 ratio to WT CAR-T (1.00); the “cytotoxic activity, effector:target 1:1, Nalm-6 target cells” value is 1.39 ratio to WT CAR-T (1.00); the “cytotoxic activity, effector:target 2:1, Nalm-6 target cells” value was 1.47 ratio to WT CAR-T (1.00).

B11: MAGE-A4-zG-m5 (other)
chain: QVQLQVQLVQSGAEVKKPGSSVKVSCKASGGTFSSYAISWVRQAPGQGLEWMGGIIPIFGTANYAQKFQGRVTITADKSTSTAYMELSSLRSEDTAVYYCARSPRRAYHDAFDIWGQGTMVTVSSGGGGSGGGGSGGGGSSYELTQPPSMSVAPGKTASITCGGDHIGSKSVHWYQQKPGQAPVLVVYDDSDRPSGIPERFRGRNSGNTARLTISGTQAMDEADYYCLAWDSSTAIFGGGTQLTVLVGQPKANPTVTLFPPSSEELQANKATLVCLISDFYPGAVTVAWKADGSPVKAGVETTKPSKQSNNKYAASSYLSLTPEQWKSHRSYSCQVTHEGSTVEKTVAPTECSARQTRFWVLVVVGGVLACYSLLVTVAFIIFWVRL[about 120 residues left out here]RSQCMWPRETQLLLEVPPSTEDARSCQFPEEERGERSAEEKGRLGDLWV
With B11, in test [1], the “IFNγ production, co-culture with SK-MEL-37” value is 0.43 ratio to WT CAR-T (1.00); the “cytotoxic activity, effector:target 1:1, SK-MEL-37 target cells” value was 1.05 ratio to WT CAR-T (1.00); the “cytotoxic activity, effector:target 3:1, SK-MEL-37 target cells” value is 1.62 ratio to WT CAR-T (1.00).
